# Reference: the supplement of paper PMC8728848
# This is one part of the list.
# B1: Gal 3 (Homo sapiens), P17931 (protein)
# chain: MADNFSLHDALSGSGNPNPQGWPGAWGNQPAGAGGYPGASYPGAYPGQAPPGAYPGQAPPGAYHGAPGAYPGAPAPGVYPGPPSGPGAYPSSGQPSAPGAYPATGPYGAPAGPLIVPYNLPLPGGVVPRMLITILGTVKPNANILDFQRGNDVAFHFNPRFNENNRRVIVCNTKLDNNWAREERQSVFPFESGKPFKIQVLVEPDHFKVAVNDAHLLQYNHRVKKLNEISKLGISGDIDLTSASYTMI
# Key:
# Experiment in all cases: glycan array binding signal (z-score within array); higher = stronger binding
# Details in all cases: glycan notation: IUPAC condensed, linker removed; mutation: G182A
# [1] = biological target: Gal(b1-3)GalNAc(a1-3)[Fuc(a1-2)]Gal(b1-4)GlcNAc
# Procedure, shortened: (§1)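 Negative Z-scores can be read as non-binding. The Z-score is calculated within each array and then averaged across arrays of one protein sequence at different concentrations or buffers and across linkers. Arrays, 3228 in all, were curated from the Consortium for Functional Glycomics database and kept only where the protein sequence was available.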
# [2] = biological target: Gal(b1-3)GalNAc(b1-3)Gal(a1-4)Gal(b1-4)Glc
# Procedure, shortened: as §1
# [3] = biological target: Gal(b1-3)GalNAc(b1-4)Gal(b1-4)Glc
# Procedure, shortened: as §1
# [4] = biological target: Gal(b1-3)GalNAc(b1-4)[Neu5Ac(a2-3)]Gal(b1-4)Glc
# Procedure, shortened: as §1
# [5] = biological target: Gal(b1-3)GlcNAc
# Procedure, shortened: as §1
# [6] = biological target: Gal(b1-3)GlcNAc(a1-6)Gal(b1-4)GlcNAc
# Procedure, shortened: as §1
# [7] = biological target: Gal(b1-3)GlcNAc(b1-2)Man(a1-3)[Gal(b1-3)GlcNAc(b1-2)Man(a1-6)]Man(b1-4)GlcNAc(b1-4)GlcNAc
# Procedure, shortened: as §1
# [8] = biological target: Gal(b1-3)GlcNAc(b1-2)Man(a1-3)[Gal(b1-3)GlcNAc(b1-2)Man(a1-6)]Man(b1-4)GlcNAc(b1-4)[Fuc(a1-6)]GlcNAc
# Procedure, shortened: as §1
# [9] = biological target: Gal(b1-3)GlcNAc(b1-3)Gal(b1-3)GlcNAc
# Procedure, shortened: as §1
# [10] = biological target: Gal(b1-3)GlcNAc(b1-3)Gal(b1-4)Glc
# Procedure, shortened: as §1
# [11] = biological target: Gal(b1-3)GlcNAc(b1-3)Gal(b1-4)GlcNAc
# Procedure, shortened: as §1
# [12] = biological target: Gal(b1-3)GlcNAc(b1-3)Gal(b1-4)GlcNAc(b1-6)[Gal(b1-3)GlcNAc(b1-3)]Gal(b1-4)Glc
# Procedure, shortened: as §1
# [13] = biological target: Gal(b1-3)GlcNAc(b1-3)Gal(b1-4)[Fuc(a1-3)]GlcNAc(b1-6)[Gal(b1-3)GlcNAc(b1-3)]Gal(b1-4)Glc
# Procedure, shortened: as §1
# [14] = biological target: Gal(b1-3)GlcNAc(b1-3)GalNAc
# Procedure, shortened: as §1
# [15] = biological target: Gal(b1-3)GlcNAc(b1-6)Gal(b1-4)GlcNAc
# Procedure, shortened: as §1
# [16] = biological target: Gal(b1-3)[Fuc(a1-4)]GlcNAc
# Procedure, shortened: as §1
# [17] = biological target: Gal(b1-3)[Fuc(a1-4)]GlcNAc(b1-2)Man(a1-3)[Gal(b1-3)[Fuc(a1-4)]GlcNAc(b1-2)Man(a1-6)]Man(b1-4)GlcNAc(b1-4)GlcNAc
# Procedure, shortened: as §1
# [18] = biological target: Gal(b1-3)[Fuc(a1-4)]GlcNAc(b1-2)Man(a1-3)[Gal(b1-3)[Fuc(a1-4)]GlcNAc(b1-2)Man(a1-6)]Man(b1-4)GlcNAc(b1-4)[Fuc(a1-6)]GlcNAc
# Procedure, shortened: as §1
# [19] = biological target: Gal(b1-3)[Fuc(a1-4)]GlcNAc(b1-3)Gal(b1-3)[Fuc(a1-4)]GlcNAc
# Procedure, shortened: as §1
# [20] = biological target: Gal(b1-3)[Fuc(a1-4)]GlcNAc(b1-3)Gal(b1-4)GlcNAc
# Procedure, shortened: as §1
# [21] = biological target: Gal(b1-3)[Fuc(a1-4)]GlcNAc(b1-3)Gal(b1-4)[Fuc(a1-3)]GlcNAc
# Procedure, shortened: as §1
# [22] = biological target: Gal(b1-3)[GlcNAc(b1-6)]GalNAc
# Procedure, shortened: as §1
# [23] = biological target: Gal(b1-3)[Neu5Ac(a2-6)]GalNAc
# Procedure, shortened: as §1
# [24] = biological target: Gal(b1-3)[Neu5Ac(a2-6)]GlcNAc(b1-6)Gal(b1-4)Glc
# Procedure, shortened: as §1
# [25] = biological target: Gal(b1-3)[Neu5Ac(b2-6)]GalNAc
# Procedure, shortened: as §1
# [26] = biological target: Gal(b1-4)GalNAc(a1-3)[Fuc(a1-2)]Gal(b1-4)GlcNAc
# Procedure, shortened: as §1
# [27] = biological target: Gal(b1-4)GalNAc(b1-3)[Fuc(a1-2)]Gal(b1-4)GlcNAc
# Procedure, shortened: as §1
# [28] = biological target: Gal(b1-4)Glc
# Procedure, shortened: as §1
# [29] = biological target: Gal(b1-4)Glc6S
# Procedure, shortened: as §1
# [30] = biological target: Gal(b1-4)GlcNAc
# Procedure, shortened: as §1
# [31] = biological target: Gal(b1-4)GlcNAc(a1-6)Gal(b1-4)GlcNAc
# Procedure, shortened: as §1
# [32] = biological target: Gal(b1-4)GlcNAc(b1-2)Man(a1-3)Man(b1-4)GlcNAc(b1-4)GlcNAc
# Procedure, shortened: as §1
# [33] = biological target: Gal(b1-4)GlcNAc(b1-2)Man(a1-3)[Gal(b1-4)GlcNAc(b1-2)Man(a1-6)]Man(b1-4)GlcNAc(b1-4)GlcNAc
# Procedure, shortened: as §1
# [34] = biological target: Gal(b1-4)GlcNAc(b1-2)Man(a1-3)[Gal(b1-4)GlcNAc(b1-2)Man(a1-6)]Man(b1-4)GlcNAc(b1-4)[Fuc(a1-6)]GlcNAc
# Procedure, shortened: as §1
# [35] = biological target: Gal(b1-4)GlcNAc(b1-2)Man(a1-3)[GlcNAc(b1-2)Man(a1-6)]Man(b1-4)GlcNAc(b1-4)GlcNAc
# Procedure, shortened: as §1
# [36] = biological target: Gal(b1-4)GlcNAc(b1-2)Man(a1-3)[Man(a1-6)]Man(b1-4)GlcNAc(b1-4)GlcNAc
# Procedure, shortened: as §1
# [37] = biological target: Gal(b1-4)GlcNAc(b1-2)Man(a1-6)Man(b1-4)GlcNAc(b1-4)GlcNAc
# Procedure, shortened: as §1
# [38] = biological target: Gal(b1-4)GlcNAc(b1-2)Man(a1-6)[GlcNAc(b1-2)Man(a1-3)]Man(b1-4)GlcNAc(b1-4)GlcNAc
# Procedure, shortened: as §1
# [39] = biological target: Gal(b1-4)GlcNAc(b1-2)Man(a1-6)[Man(a1-3)]Man(b1-4)GlcNAc(b1-4)GlcNAc
# Procedure, shortened: as §1
# [40] = biological target: Gal(b1-4)GlcNAc(b1-2)[Gal(b1-4)GlcNAc(b1-4)]Man(a1-3)[Gal(b1-4)GlcNAc(b1-2)Man(a1-6)]Man(b1-4)GlcNAc(b1-4)GlcNAc
# Procedure, shortened: as §1
# [41] = biological target: Gal(b1-4)GlcNAc(b1-2)[Gal(b1-4)GlcNAc(b1-4)]Man(a1-3)[Gal(b1-4)GlcNAc(b1-2)[Gal(b1-4)GlcNAc(b1-6)]Man(a1-6)]Man(b1-4)GlcNAc(b1-4)GlcNAc
# Procedure, shortened: as §1
# [42] = biological target: Gal(b1-4)GlcNAc(b1-3)Gal(b1-3)GlcNAc
# Procedure, shortened: as §1
# [43] = biological target: Gal(b1-4)GlcNAc(b1-3)Gal(b1-4)Glc
# Procedure, shortened: as §1
# [44] = biological target: Gal(b1-4)GlcNAc(b1-3)Gal(b1-4)GlcNAc
# Procedure, shortened: as §1
# [45] = biological target: Gal(b1-4)GlcNAc(b1-3)Gal(b1-4)GlcNAc(b1-3)Gal(b1-4)GlcNAc
# Procedure, shortened: as §1
binder,measurement,setting,value
B1,glycan array binding signal (z-score),[1],0.011
same,glycan array binding signal (z-score),[2],-0.191
same,glycan array binding signal (z-score),[3],-0.189
same,glycan array binding signal (z-score),[4],-0.189
same,glycan array binding signal (z-score),[5],-0.191
same,glycan array binding signal (z-score),[6],-0.189
same,glycan array binding signal (z-score),[7],-0.173
same,glycan array binding signal (z-score),[8],-0.181
same,glycan array binding signal (z-score),[9],-0.137
same,glycan array binding signal (z-score),[10],-0.158
same,glycan array binding signal (z-score),[11],-0.171
same,glycan array binding signal (z-score),[12],-0.118
same,glycan array binding signal (z-score),[13],-0.189
same,glycan array binding signal (z-score),[14],-0.17
same,glycan array binding signal (z-score),[15],-0.179
same,glycan array binding signal (z-score),[16],-0.189
same,glycan array binding signal (z-score),[17],-0.175
same,glycan array binding signal (z-score),[18],-0.176
same,glycan array binding signal (z-score),[19],-0.189
same,glycan array binding signal (z-score),[20],-0.195
same,glycan array binding signal (z-score),[21],-0.186
same,glycan array binding signal (z-score),[22],-0.179
same,glycan array binding signal (z-score),[23],-0.172
same,glycan array binding signal (z-score),[24],-0.164
same,glycan array binding signal (z-score),[25],-0.187
same,glycan array binding signal (z-score),[26],0.134
same,glycan array binding signal (z-score),[27],-0.166
same,glycan array binding signal (z-score),[28],-0.187
same,glycan array binding signal (z-score),[29],-0.183
same,glycan array binding signal (z-score),[30],-0.185
same,glycan array binding signal (z-score),[31],-0.16
same,glycan array binding signal (z-score),[32],-0.191
same,glycan array binding signal (z-score),[33],-0.172
same,glycan array binding signal (z-score),[34],-0.197
same,glycan array binding signal (z-score),[35],-0.154
same,glycan array binding signal (z-score),[36],-0.187
same,glycan array binding signal (z-score),[37],-0.141
same,glycan array binding signal (z-score),[38],-0.19
same,glycan array binding signal (z-score),[39],-0.197
same,glycan array binding signal (z-score),[40],-0.189
same,glycan array binding signal (z-score),[41],-0.136
same,glycan array binding signal (z-score),[42],0.746
same,glycan array binding signal (z-score),[43],-0.074
same,glycan array binding signal (z-score),[44],2.97
same,glycan array binding signal (z-score),[45],7.13
